In PMC5615199, “Structural Basis for EarP-Mediated Arginine Glycosylation of Translation Elongation Factor EF-P” (mBio, 2017):
No constants are given. Whether binding was seen depends on the method and setting. Some binding calls cover weakened binding; strength is not graded here. For some of these results: Sequences can lack the tags named with a protein.

T1: EF-PPpu, translation elongation factor EF-P from Pseudomonas putida, T18 hybrid (pUT18C-efpPpu) (Pseudomonas putida) (UniProt Q88LS0)
T1 sequence: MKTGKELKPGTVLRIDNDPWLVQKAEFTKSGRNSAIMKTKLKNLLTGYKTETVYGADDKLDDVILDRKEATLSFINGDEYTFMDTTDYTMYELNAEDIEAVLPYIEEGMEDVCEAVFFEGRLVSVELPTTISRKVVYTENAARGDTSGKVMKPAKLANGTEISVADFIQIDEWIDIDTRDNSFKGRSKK


target: T1, EF-PPpu, translation elongation factor EF-P from Pseudomonas putida, T18 hybrid (pUT18C-efpPpu) (Pseudomonas putida); experiment: two-hybrid; bacterial adenylate cyclase two-hybrid (T18/T25) in E. coli BTH101, colony colour on LB X-Gal-IPTG screening plates, 48 h at 30°C

Row | binding | Binder
1 | binds | D13A^EarP, T25 hybrid (pKT25-D13A) (enzyme, UniProt Q88LS1 2-377) KATWDIFCSVVANYGDIGVTWRLARQLVAEHGLAVRLWVDDLNAFTPMCPGADATAAQQWQHGVDVRHWPAAWLPVAPADVVIGAFACQLPAAYVEAMRARPQPPLWLNLEYLSAEDWVEGCHGLPSPQPNGLRKVFFFPGFTDKTGGLLREGSLLARRDGFQQSAEARRAFLQGLGVDLVPGALLISLFAYENPQLGNWLDALATADQPCHLLVPQGRVVAGLSQWLGEGPLHVGDVRTRGALTVQVLPFVSQDDFDRLLWSCDFNAVRGEDSFVRAQWAGQPMLWHIYVQDENAHWEKLEAFLAHYRCGLSDDADAALLGLWRAWNMDFDMGQAWRAARQHWPELQQHARLWGARQAAQPDLATALVHFYRNSL
2 | binds | E273A^EarP, T25 hybrid (pKT25-E273A) (enzyme, UniProt Q88LS1 2-377) KATWDIFCSVVDNYGDIGVTWRLARQLVAEHGLAVRLWVDDLNAFTPMCPGADATAAQQWQHGVDVRHWPAAWLPVAPADVVIGAFACQLPAAYVEAMRARPQPPLWLNLEYLSAEDWVEGCHGLPSPQPNGLRKVFFFPGFTDKTGGLLREGSLLARRDGFQQSAEARRAFLQGLGVDLVPGALLISLFAYENPQLGNWLDALATADQPCHLLVPQGRVVAGLSQWLGEGPLHVGDVRTRGALTVQVLPFVSQDDFDRLLWSCDFNAVRGADSFVRAQWAGQPMLWHIYVQDENAHWEKLEAFLAHYRCGLSDDADAALLGLWRAWNMDFDMGQAWRAARQHWPELQQHARLWGARQAAQPDLATALVHFYRNSL
3 | binds | D17A^EarP, T25 hybrid (pKT25-D17A) (enzyme, UniProt Q88LS1 2-377) KATWDIFCSVVDNYGAIGVTWRLARQLVAEHGLAVRLWVDDLNAFTPMCPGADATAAQQWQHGVDVRHWPAAWLPVAPADVVIGAFACQLPAAYVEAMRARPQPPLWLNLEYLSAEDWVEGCHGLPSPQPNGLRKVFFFPGFTDKTGGLLREGSLLARRDGFQQSAEARRAFLQGLGVDLVPGALLISLFAYENPQLGNWLDALATADQPCHLLVPQGRVVAGLSQWLGEGPLHVGDVRTRGALTVQVLPFVSQDDFDRLLWSCDFNAVRGEDSFVRAQWAGQPMLWHIYVQDENAHWEKLEAFLAHYRCGLSDDADAALLGLWRAWNMDFDMGQAWRAARQHWPELQQHARLWGARQAAQPDLATALVHFYRNSL

target: EarPPpu, EarP from Pseudomonas putida KT2440, purified His6-tagged protein (Pseudomonas putida KT2440) (UniProt Q88LS1); experiment: SAXS; EarP at 1.0, 2.0, 4.0 and 8.0 mg/ml, free and with TDP-Rha in 7:1 excess, 20°C; scattering back-calculated from the crystal structure fitted to the data; both purified

Row | binding | Binder
4 | no binding (tested: 1.0 to 8.0 mg/ml) | EarPPpu, EarP from Pseudomonas putida KT2440, purified His6-tagged protein (enzyme, UniProt Q88LS1 2-377) KATWDIFCSVVDNYGDIGVTWRLARQLVAEHGLAVRLWVDDLNAFTPMCPGADATAAQQWQHGVDVRHWPAAWLPVAPADVVIGAFACQLPAAYVEAMRARPQPPLWLNLEYLSAEDWVEGCHGLPSPQPNGLRKVFFFPGFTDKTGGLLREGSLLARRDGFQQSAEARRAFLQGLGVDLVPGALLISLFAYENPQLGNWLDALATADQPCHLLVPQGRVVAGLSQWLGEGPLHVGDVRTRGALTVQVLPFVSQDDFDRLLWSCDFNAVRGEDSFVRAQWAGQPMLWHIYVQDENAHWEKLEAFLAHYRCGLSDDADAALLGLWRAWNMDFDMGQAWRAARQHWPELQQHARLWGARQAAQPDLATALVHFYRNSL

target: T1, EF-PPpu, translation elongation factor EF-P from Pseudomonas putida, T18 hybrid (pUT18C-efpPpu) (Pseudomonas putida); experiment: two-hybrid; bacterial adenylate cyclase two-hybrid (T18/T25) in E. coli BTH101, beta-galactosidase activity in Miller units from liquid LB cultures with 0.5 mM IPTG, 30°C, 42 h; T25 and T18 alone <60 MU define the threshold

Row | Binder | binding
5 | R271A^EarP, T25 hybrid (pKT25-R271A) (enzyme, UniProt Q88LS1 2-377) KATWDIFCSVVDNYGDIGVTWRLARQLVAEHGLAVRLWVDDLNAFTPMCPGADATAAQQWQHGVDVRHWPAAWLPVAPADVVIGAFACQLPAAYVEAMRARPQPPLWLNLEYLSAEDWVEGCHGLPSPQPNGLRKVFFFPGFTDKTGGLLREGSLLARRDGFQQSAEARRAFLQGLGVDLVPGALLISLFAYENPQLGNWLDALATADQPCHLLVPQGRVVAGLSQWLGEGPLHVGDVRTRGALTVQVLPFVSQDDFDRLLWSCDFNAVAGEDSFVRAQWAGQPMLWHIYVQDENAHWEKLEAFLAHYRCGLSDDADAALLGLWRAWNMDFDMGQAWRAARQHWPELQQHARLWGARQAAQPDLATALVHFYRNSL | binds
6 | F191A^EarP, T25 hybrid (pKT25-F191A) (enzyme, UniProt Q88LS1 2-377) KATWDIFCSVVDNYGDIGVTWRLARQLVAEHGLAVRLWVDDLNAFTPMCPGADATAAQQWQHGVDVRHWPAAWLPVAPADVVIGAFACQLPAAYVEAMRARPQPPLWLNLEYLSAEDWVEGCHGLPSPQPNGLRKVFFFPGFTDKTGGLLREGSLLARRDGFQQSAEARRAFLQGLGVDLVPGALLISLAAYENPQLGNWLDALATADQPCHLLVPQGRVVAGLSQWLGEGPLHVGDVRTRGALTVQVLPFVSQDDFDRLLWSCDFNAVRGEDSFVRAQWAGQPMLWHIYVQDENAHWEKLEAFLAHYRCGLSDDADAALLGLWRAWNMDFDMGQAWRAARQHWPELQQHARLWGARQAAQPDLATALVHFYRNSL | no binding (tested: <60 MU (threshold of the assay))
7 | Q255A^EarP, T25 hybrid (pKT25-Q255A) (enzyme, UniProt Q88LS1 2-377) KATWDIFCSVVDNYGDIGVTWRLARQLVAEHGLAVRLWVDDLNAFTPMCPGADATAAQQWQHGVDVRHWPAAWLPVAPADVVIGAFACQLPAAYVEAMRARPQPPLWLNLEYLSAEDWVEGCHGLPSPQPNGLRKVFFFPGFTDKTGGLLREGSLLARRDGFQQSAEARRAFLQGLGVDLVPGALLISLFAYENPQLGNWLDALATADQPCHLLVPQGRVVAGLSQWLGEGPLHVGDVRTRGALTVQVLPFVSADDFDRLLWSCDFNAVRGEDSFVRAQWAGQPMLWHIYVQDENAHWEKLEAFLAHYRCGLSDDADAALLGLWRAWNMDFDMGQAWRAARQHWPELQQHARLWGARQAAQPDLATALVHFYRNSL | no binding (tested: <60 MU (threshold of the assay))
8 | F258A^EarP, T25 hybrid (pKT25-F258A) (enzyme, UniProt Q88LS1 2-377) KATWDIFCSVVDNYGDIGVTWRLARQLVAEHGLAVRLWVDDLNAFTPMCPGADATAAQQWQHGVDVRHWPAAWLPVAPADVVIGAFACQLPAAYVEAMRARPQPPLWLNLEYLSAEDWVEGCHGLPSPQPNGLRKVFFFPGFTDKTGGLLREGSLLARRDGFQQSAEARRAFLQGLGVDLVPGALLISLFAYENPQLGNWLDALATADQPCHLLVPQGRVVAGLSQWLGEGPLHVGDVRTRGALTVQVLPFVSQDDADRLLWSCDFNAVRGEDSFVRAQWAGQPMLWHIYVQDENAHWEKLEAFLAHYRCGLSDDADAALLGLWRAWNMDFDMGQAWRAARQHWPELQQHARLWGARQAAQPDLATALVHFYRNSL | no binding (tested: <60 MU (threshold of the assay))
9 | F252A^EarP, T25 hybrid (pKT25-F252A) (enzyme, UniProt Q88LS1 2-377) KATWDIFCSVVDNYGDIGVTWRLARQLVAEHGLAVRLWVDDLNAFTPMCPGADATAAQQWQHGVDVRHWPAAWLPVAPADVVIGAFACQLPAAYVEAMRARPQPPLWLNLEYLSAEDWVEGCHGLPSPQPNGLRKVFFFPGFTDKTGGLLREGSLLARRDGFQQSAEARRAFLQGLGVDLVPGALLISLFAYENPQLGNWLDALATADQPCHLLVPQGRVVAGLSQWLGEGPLHVGDVRTRGALTVQVLPAVSQDDFDRLLWSCDFNAVRGEDSFVRAQWAGQPMLWHIYVQDENAHWEKLEAFLAHYRCGLSDDADAALLGLWRAWNMDFDMGQAWRAARQHWPELQQHARLWGARQAAQPDLATALVHFYRNSL | no binding (tested: <60 MU (threshold of the assay))
10 | Y193A^EarP, T25 hybrid (pKT25-Y193A) (enzyme, UniProt Q88LS1 2-377) KATWDIFCSVVDNYGDIGVTWRLARQLVAEHGLAVRLWVDDLNAFTPMCPGADATAAQQWQHGVDVRHWPAAWLPVAPADVVIGAFACQLPAAYVEAMRARPQPPLWLNLEYLSAEDWVEGCHGLPSPQPNGLRKVFFFPGFTDKTGGLLREGSLLARRDGFQQSAEARRAFLQGLGVDLVPGALLISLFAAENPQLGNWLDALATADQPCHLLVPQGRVVAGLSQWLGEGPLHVGDVRTRGALTVQVLPFVSQDDFDRLLWSCDFNAVRGEDSFVRAQWAGQPMLWHIYVQDENAHWEKLEAFLAHYRCGLSDDADAALLGLWRAWNMDFDMGQAWRAARQHWPELQQHARLWGARQAAQPDLATALVHFYRNSL | no binding (tested: <60 MU (threshold of the assay))
11 | Y291A^EarP, T25 hybrid (pKT25-Y291A) (enzyme, UniProt Q88LS1 2-377) KATWDIFCSVVDNYGDIGVTWRLARQLVAEHGLAVRLWVDDLNAFTPMCPGADATAAQQWQHGVDVRHWPAAWLPVAPADVVIGAFACQLPAAYVEAMRARPQPPLWLNLEYLSAEDWVEGCHGLPSPQPNGLRKVFFFPGFTDKTGGLLREGSLLARRDGFQQSAEARRAFLQGLGVDLVPGALLISLFAYENPQLGNWLDALATADQPCHLLVPQGRVVAGLSQWLGEGPLHVGDVRTRGALTVQVLPFVSQDDFDRLLWSCDFNAVRGEDSFVRAQWAGQPMLWHIAVQDENAHWEKLEAFLAHYRCGLSDDADAALLGLWRAWNMDFDMGQAWRAARQHWPELQQHARLWGARQAAQPDLATALVHFYRNSL | binds
12 | D274A^EarP, T25 hybrid (pKT25-D274A) (enzyme, UniProt Q88LS1 2-377) KATWDIFCSVVDNYGDIGVTWRLARQLVAEHGLAVRLWVDDLNAFTPMCPGADATAAQQWQHGVDVRHWPAAWLPVAPADVVIGAFACQLPAAYVEAMRARPQPPLWLNLEYLSAEDWVEGCHGLPSPQPNGLRKVFFFPGFTDKTGGLLREGSLLARRDGFQQSAEARRAFLQGLGVDLVPGALLISLFAYENPQLGNWLDALATADQPCHLLVPQGRVVAGLSQWLGEGPLHVGDVRTRGALTVQVLPFVSQDDFDRLLWSCDFNAVRGEASFVRAQWAGQPMLWHIYVQDENAHWEKLEAFLAHYRCGLSDDADAALLGLWRAWNMDFDMGQAWRAARQHWPELQQHARLWGARQAAQPDLATALVHFYRNSL | no binding (tested: <60 MU (threshold of the assay))
13 | S275A^EarP, T25 hybrid (pKT25-S275A) (enzyme, UniProt Q88LS1 2-377) KATWDIFCSVVDNYGDIGVTWRLARQLVAEHGLAVRLWVDDLNAFTPMCPGADATAAQQWQHGVDVRHWPAAWLPVAPADVVIGAFACQLPAAYVEAMRARPQPPLWLNLEYLSAEDWVEGCHGLPSPQPNGLRKVFFFPGFTDKTGGLLREGSLLARRDGFQQSAEARRAFLQGLGVDLVPGALLISLFAYENPQLGNWLDALATADQPCHLLVPQGRVVAGLSQWLGEGPLHVGDVRTRGALTVQVLPFVSQDDFDRLLWSCDFNAVRGEDAFVRAQWAGQPMLWHIYVQDENAHWEKLEAFLAHYRCGLSDDADAALLGLWRAWNMDFDMGQAWRAARQHWPELQQHARLWGARQAAQPDLATALVHFYRNSL | no binding (tested: <60 MU (threshold of the assay))
